# ± gives the standard deviation of the averaged measurements. The full ranking holds about 4,100 sequences; the median of “arbitrary fluorescence units” is about 780, and the highest 2% start at about 22,000. The list shows a part of the results.
# Biological target: T1, ETS1 (UniProt P14921)
# T1 sequence: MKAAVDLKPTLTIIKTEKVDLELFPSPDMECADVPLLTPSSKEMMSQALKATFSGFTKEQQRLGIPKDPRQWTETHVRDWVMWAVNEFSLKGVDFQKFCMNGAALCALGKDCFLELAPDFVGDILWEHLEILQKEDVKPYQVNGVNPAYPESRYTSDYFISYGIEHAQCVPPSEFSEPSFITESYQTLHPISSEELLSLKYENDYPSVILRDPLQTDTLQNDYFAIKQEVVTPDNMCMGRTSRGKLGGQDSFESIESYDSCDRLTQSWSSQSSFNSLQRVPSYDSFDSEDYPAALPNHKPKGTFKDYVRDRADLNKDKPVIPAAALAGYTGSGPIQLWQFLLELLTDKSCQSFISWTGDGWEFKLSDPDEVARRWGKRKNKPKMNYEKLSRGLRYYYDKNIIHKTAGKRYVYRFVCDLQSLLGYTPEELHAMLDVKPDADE
# Experiment: ETS1 binding intensity (PBM fluorescence), ETS1 alone (arbitrary fluorescence units); higher = stronger binding
# Details: ETS1 concentration 1 nM; RUNX1 concentration 0 nM
# Procedure, shortened: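 Recombinant full-length human ETS1 was applied at 1 nM, without RUNX1, to double-stranded Agilent 4 × 180k arrays of 36-bp genomic probes carrying a mutated RUNX1 partner site, following standard PBM protocols. Detection used an anti-ETS1 antibody (Cell Signaling Technology 14069) and an Alexa488-conjugated secondary antibody, with scanning on a GenePix 4400A. Each sequence was printed as four replicate spots. Binding level is the spot fluorescence intensity, summarised across replicates and not normalised.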
row,Sequence,ETS1 binding intensity
1,TTGCGACTCGCGGCGACCCCTACGCGGAACTCTCTC,356
2,GGCACTTCCGGTCCTGACCTGAAGCGCTCACCGTCA,55000
3,AGCTTTCCGTCGCTCCGGCCCGCCTCGCCGTAAGGC,898
4,TGCGCGGCCGAAGGGGCCAGACCCGGACGGCTCCAG,317
5,CTGCCGGAAGCTGCCCCTCCACCATTTTGGGGCCCG,3250
6,CAGCACGCAGGAAGCACATGTCGTGGGGCTCTTCCA,1210
7,AGACAATTAGAAACTACACCCATATCCTAAACCCAC,527
8,CCGCCTGCAGGGGCTGCCGGAGGCTTTTCCTGTTCC,550
9,TGGGTACTTCCTGTGACAAATCGAGTTGACAACATG,20900
10,AGTTCCAGCAACCTCGGCTCCCTCTTCCGGTCCCGG,3090
11,AAAGAGGAAATCACGTACCCGAAAATCACATGCACA,652
12,GGAGATGTGAGCGCCGAGAAGTGGAGCAGGAAGCGA,523
13,TGTGAAATCGCAGGGGTTCAGGGAGGAAGTGTAAGC,450
14,CCTTTGTTGGGGTTTTTGCAGGAAGAGAAGGGTTAG,530 ± 22
15,AAAGGCACGGTGGCTAGCGCGGGCTTCCTGGAGGAC,393
16,GAGACATGTGATTACATATTTAACGGCATCCTGCCA,465
17,GGAGCGGCGGAAGGGAGCTTGAGGCGGGAGGCTGAA,609
18,ACTTGGCAGTTCCGGGTCCGCGCCCCAGCGCGCCAC,2630
19,GGTTCAGCCCCAGGAAGATCAGACAACAGAAGCGGA,422
20,AAGAGCATGCACCCTCAGAGACAGGAAGTGGCGGCT,3110
21,GCCCTTCGGCGCCTGCGCGCTAAAAAGAGGAAGTTT,381

row,Sequence,ETS1 binding intensity
1,GCACTACATTTCCCAGCTTTCCTCGCGGCAAAGAGA,462
2,GCTCTCGCGGAAGATGTCCCTTCGGTGCAGCTGCCG,400
3,GTGCCGTGTGCCTCGGGTCGGTGCACCGTCCGGGAT,323
4,AAGGCTGAGGGTAAGGCGACATTTCCTGCCCCCGGG,2580
5,CCCCTCCCCACACCAGAACAAACCGGATCCTTGCGC,483
6,ATAAACAGGAAGCTGAGTATGTGAGCACAGACATTC,7370
7,CCCACCTCGGCCCACGCCGAGCGTGGCGGAACAGCT,385
8,AGGTTTGTGAGTTCACTCTGGTATTTATTTCCTCTT,559
9,GCACTGGAGGAAACTGCTCTCCCTTGCTGCTGGACG,432
10,GCTCCTCCCGGATATAAAGCCCCAAAGCACGCCACT,1760
11,GCCGCTGGAGCTTCGGGAAGCGGAAGTGCTCGTTGG,2460
12,TTACCCCAGGAAAAGCCTCCTCACCCCAGTGACCAG,454
13,GAGGGACAGGATGCCGCCAGGAACTACAAGAGCTTC,2011 ± 16
14,TGGAAGAGGAAGGGGCGGAGCTGCTTTGGGGCCGGC,504
15,TGTTTTCGCTCTTCCTGGCCTTGGGGGCAGCCAGGA,1410
16,GCGCTGTACTGCGCCTTGTGCCGCTTCCGCCAGAAG,829
17,CCCGAGGTCCAAAATCTGAGTAAAGCGGAAGTACGG,2030
18,CCACTGCTTTGTTTCCTCTCCAGATCGCGCATTTTG,1410
19,TGTGCATGTGATTTTCGGGTATGTGATTTCCTCTTT,539
20,CCACTGCCGTTGTAGGTAACGCGGACGTGGAAGAAC,425
21,GCATCTGGGGGAAGTTACACAACGACAGCTGTGCAG,596

row,Sequence,ETS1 binding intensity
1,TGGGAACTTCCTGTGGAGGAGTGCATTGTTGGACTT,15500
2,TTGGCCTGGGCTCTGGGCCACTTCCTGTGCTCTCCA,5490
3,AATGCAGCATTTCCTCTCCAGTTCACCAGAGGCCCC,5490
4,CCATGCGCTGCTTCCTTCCACTTATCGCCCTCGCAC,1400
5,CCACTAGCAGGAAAACGGGCCGAGGGACCCCAAGCA,504
6,AAATGTGTGTAGTTTCAGAACTTCCTCCCCACCTCC,1020
7,AGGTGGGAGGAAGTTCCTACCCCGGCGCGGAGTGCC,1510
8,TGGCCTCGGCCTGTAGACGCCCGGCTCCGGAAGTGC,687
9,CGGGACTTCCTGTCTTCCCTGTCGCGGAGCTCTGAA,27000
10,CACTCCCCCATTCCGGCTGCAGGTTGGGGTTTGGAA,400
11,CTCACTCTGGTGCTATACTTTGTTTCCTTTCTCTTT,599
12,GCGGCCCTGTTTCCTAATCACCCCAGTCAGAACCGT,513 ± 8.3
13,TCGTCTCTTCCGGATCCCTCCTGCACCGCCTACAGC,3480
14,CCGCGAACAGCAGAATTCCCGCCTTCCGCAGCCCGG,480 ± 6.2
15,GCTGCCTCTGCCGTAAAGATGCCCCCTTCCGCTGGA,432
16,CCTGAGGGCTGGGAGGCCAGGTCCTTTCCTGCCCAG,408
17,CCCACCCTCGCCGGAAGCCGAGCGGATTCTACATCA,3110
18,GAGAAGGGTGCGATCTAGGGAGGAGGAAGTGCAGGT,540
19,TACCTAGACCCTTTCCGCCCTTACCGTGGCCAGACA,1600
20,TTTCTGTGATTTGGTTTCTATAGAGACACTTCCTGT,1600

# — the supplement of paper PMC10681739
